# Experimental data reported in a collection of fitness landscapes (doi:10.1126/science.1257360).
# The list shows a part of the results.
# B1: PhoQ; a variant is named by its letters at X, in order, P23837 (parent)
# chain: MKKLLRLFFPLSLRVRFLLATAAVVLVLSLAYGMVALIGYSVSFDKTTFRLLRGESNLFYTLAKWENNKLHVELPENIDKQSPTMTLIYDENGQLLWAQRDVPWLMKMIQPDWLKSNGFHEIEADVNDTSLLLSGDHSIQQQLQEVREDDDDAEMTHSVAVNVYPATSRMPKLTIVVVDTIPVELKSSYMVWSWFIYVLSANLLLVIPLLWVAAWWSLRPIEALAKEVRELEEHNRELLNPATTRELTSLVRNLNRLLKSERERYDKYRTTLTDLTHSLKTPLXXLQXXLRSLRSEKMSVSDAEPVMLEQISRISQQIGYYLHRASMRGGTLLSRELHPVAPLLDNLTSALNKVYQRKGVNISLDISPEISFVGEQNDFVEVMGNVLDNACKYCLEFVEISARQTDEHLYIVVEDDGPGIPLSKREVIFDRGQRVDTLRPGQGVGLAVAREITEQYEGKIVAGESMLGGARMEVIFGRQHSAPKDE
# Variants of: B1
# Test: enrichment ratio after two sorts for PhoP signalling (ratio (wild type AVST 3.29)); higher = more functional
# Conditions: with PhoP (E. coli)
row,Variant,enrichment ratio
1,MDSQ,≤ 0.25
2,QLKC,≤ 0.25
3,HDHD,≤ 0.25
4,DEPE,≤ 0.25
5,KTKV,≤ 0.25
6,LSWN,≤ 0.25
7,TSSV,20
8,RNGF,≤ 0.25
9,LCSF,≤ 0.25
10,HHLS,≤ 0.25
11,AAPR,≤ 0.25
12,DQVY,≤ 0.25
13,ANTE,≤ 0.25
14,VDYQ,≤ 0.25
15,VSNW,≤ 0.25
16,HGER,≤ 0.25
17,SDQK,≤ 0.25
18,YSGY,≤ 0.25
19,CMFP,≤ 0.25
20,RKAD,≤ 0.25
21,LSAS,≤ 0.25
22,PAII,≤ 0.25
23,LYNF,≤ 0.25
24,RHEH,≤ 0.25

row,Variant,enrichment ratio
1,KFLQ,≤ 0.25
2,KSMA,≤ 0.25
3,TSEN,≤ 0.25
4,AFRI,0.554
5,GCRI,≤ 0.25
6,ECLW,≤ 0.25
7,RPCC,≤ 0.25
8,WLTN,≤ 0.25
9,PIAW,≤ 0.25
10,HLHN,≤ 0.25
11,KFLM,≤ 0.25
12,WLYG,≤ 0.25
13,LAQN,≤ 0.25
14,LNPG,≤ 0.25
15,RCDH,≤ 0.25
16,LEKR,≤ 0.25
17,QVQP,≤ 0.25
18,EARR,≤ 0.25
19,HSEF,≤ 0.25
20,TLVM,≤ 0.25
21,QLNA,≤ 0.25
22,SMRN,≤ 0.25
23,YATF,≤ 0.25
24,EYKF,≤ 0.25

row,Variant,enrichment ratio
1,NPIQ,≤ 0.25
2,KRYT,≤ 0.25
3,FYIT,≤ 0.25
4,DIDI,≤ 0.25
5,GIEW,≤ 0.25
6,HPKF,≤ 0.25
7,QTTH,≤ 0.25
8,AQHD,≤ 0.25
9,QRDN,≤ 0.25
10,DVPN,≤ 0.25
11,DCRM,≤ 0.25
12,LPND,≤ 0.25
13,DTQS,≤ 0.25
14,NGRP,≤ 0.25
15,DLAE,≤ 0.25
16,YNWI,≤ 0.25
17,TKSL,8.47
18,YYDV,≤ 0.25
19,SFSE,≤ 0.25
20,LAKP,≤ 0.25
21,IACC,≤ 0.25
22,MISV,4.88
23,SGRL,≤ 0.25
24,KPHT,≤ 0.25

row,Variant,enrichment ratio
1,YALH,5.84
2,YVCG,≤ 0.25
3,NTVS,≤ 0.25
4,LKCG,≤ 0.25
5,GQLP,≤ 0.25
6,PSAQ,≤ 0.25
7,RHLW,≤ 0.25
8,DAAQ,≤ 0.25
9,ESQC,≤ 0.25
10,TWFP,≤ 0.25
11,PFGI,≤ 0.25
12,RENT,≤ 0.25
13,NLGT,≤ 0.25
14,RCNF,≤ 0.25
15,RAPR,≤ 0.25
16,TFSF,≤ 0.25
17,VILQ,≤ 0.25
18,NECM,28.2
19,KFGQ,≤ 0.25
20,LIFH,0.405
21,DVLL,≤ 0.25
22,GGIV,2.44
23,AFGF,≤ 0.25
24,FHPT,≤ 0.25

row,Variant,enrichment ratio
1,EINS,≤ 0.25
2,HQTV,≤ 0.25
3,VRTP,≤ 0.25
4,FMTE,≤ 0.25
5,AEKC,≤ 0.25
6,GFYA,≤ 0.25
7,YLHN,≤ 0.25
8,AAIF,0.484
9,SIQH,5.79
10,RYKS,≤ 0.25
11,TNFP,≤ 0.25
12,QLPN,≤ 0.25
13,RYIW,≤ 0.25
14,REIN,≤ 0.25
15,INKN,≤ 0.25
16,TFIP,≤ 0.25
17,RAAM,≤ 0.25
18,DCGR,≤ 0.25
19,QQHD,≤ 0.25
20,NHNL,≤ 0.25
21,DVRL,≤ 0.25
22,QETV,≤ 0.25
23,VGNS,≤ 0.25
24,NEFY,≤ 0.25

row,Variant,enrichment ratio
1,MLGI,≤ 0.25
2,IRSE,≤ 0.25
3,YGLS,7.31
4,FSWA,≤ 0.25
5,HICV,≤ 0.25
6,MEYL,3.47
7,TDWQ,≤ 0.25
8,NMSQ,≤ 0.25
9,HYMK,≤ 0.25
10,RQVA,≤ 0.25
11,VGRE,≤ 0.25
12,FWNW,≤ 0.25
13,TPNI,≤ 0.25
14,FINC,≤ 0.25
15,EAHY,≤ 0.25
16,GHIN,≤ 0.25
17,TTIR,≤ 0.25
18,MWGD,≤ 0.25
19,SENM,≤ 0.25
20,SFFE,≤ 0.25
21,TMDW,≤ 0.25
22,LQFN,≤ 0.25
23,SKFF,≤ 0.25
24,KWIH,≤ 0.25

row,Variant,enrichment ratio
1,TSFC,2.12
2,RVAN,≤ 0.25
3,ISYQ,≤ 0.25
4,SVFP,≤ 0.25
5,EDHN,≤ 0.25
6,RRCI,≤ 0.25
7,KFKG,≤ 0.25
8,MVGY,≤ 0.25
9,DHVF,≤ 0.25
10,NNSC,≤ 0.25
11,FGCR,≤ 0.25
12,WDQR,≤ 0.25
13,LVNW,≤ 0.25
14,TWCK,≤ 0.25
15,ICLN,3.97
16,ERHC,≤ 0.25
17,DRLY,≤ 0.25
18,VVDM,≤ 0.25
19,ICKI,≤ 0.25
20,MCLP,≤ 0.25
21,SDSY,≤ 0.25
22,FSSM,≤ 0.25
23,STHM,≤ 0.25
24,QYSF,≤ 0.25

row,Variant,enrichment ratio
1,NRCI,≤ 0.25
2,SHPT,≤ 0.25
3,DVFE,≤ 0.25
4,TQTK,≤ 0.25
5,NEFV,≤ 0.25
6,AVNI,≤ 0.25
7,EYFR,≤ 0.25
8,QAYF,4.32
9,FQTA,≤ 0.25
10,LLMF,≤ 0.25
11,AQFS,0.395
12,IASY,≤ 0.25
13,QPVW,≤ 0.25
14,WEQG,≤ 0.25
15,NCRD,≤ 0.25
16,NCFN,≤ 0.25
17,TKND,12.6
18,VQMI,≤ 0.25
19,WNDS,1.17
20,KFYD,≤ 0.25
21,HAQG,≤ 0.25
22,SWLV,≤ 0.25
23,VHEQ,≤ 0.25
24,FKKY,≤ 0.25

row,Variant,enrichment ratio
1,WMYW,≤ 0.25
2,DNME,≤ 0.25
3,KLFY,≤ 0.25
4,HMAL,≤ 0.25
5,KNSS,≤ 0.25
6,ISLP,≤ 0.25
7,PHCD,≤ 0.25
8,FRNE,≤ 0.25
9,PFRN,≤ 0.25
10,WDFD,≤ 0.25
11,YTKR,≤ 0.25
12,NFNS,≤ 0.25
13,HHHN,≤ 0.25
14,YIRK,≤ 0.25
15,RHQG,≤ 0.25
16,ADVR,≤ 0.25
17,FLNA,≤ 0.25
18,TGNA,0.391
19,MGWY,4.8
20,MIIL,≤ 0.25
21,MWHL,≤ 0.25
22,YEYL,≤ 0.25
23,VGLE,≤ 0.25
24,MIPI,≤ 0.25

row,Variant,enrichment ratio
1,ECIM,≤ 0.25
2,GVTC,≤ 0.25
3,NVCR,≤ 0.25
4,EHGV,≤ 0.25
5,RVQW,≤ 0.25
6,DHLS,≤ 0.25
7,NALL,5.99
8,ENTD,≤ 0.25
9,PCFS,≤ 0.25
10,QAYE,≤ 0.25
11,NYFM,≤ 0.25
12,YIIV,≤ 0.25
13,DSNS,≤ 0.25
14,RIIE,≤ 0.25
15,LEQL,≤ 0.25
16,HISL,1.69
17,VNTD,≤ 0.25
18,DCGC,≤ 0.25
19,APYT,≤ 0.25
20,LDMP,≤ 0.25
21,IVAN,≤ 0.25
22,QNYW,≤ 0.25
23,DPYR,≤ 0.25
24,LGST,≤ 0.25

row,Variant,enrichment ratio
1,KVEG,≤ 0.25
2,IVPY,≤ 0.25
3,EASQ,≤ 0.25
4,NDMC,≤ 0.25
5,QFMN,≤ 0.25
6,WIRV,≤ 0.25
7,TNGH,7.13
8,PDIP,≤ 0.25
9,TCPC,≤ 0.25
10,PLHE,≤ 0.25
11,YFYG,≤ 0.25
12,SNDI,≤ 0.25
13,DWPA,≤ 0.25
14,VHVM,≤ 0.25
15,MIMQ,9.67
16,INVW,≤ 0.25
17,SKQR,≤ 0.25
18,WFRY,≤ 0.25
19,DRWR,≤ 0.25
20,HDRS,≤ 0.25
21,VPSP,≤ 0.25
22,SGAY,15.2
23,LYMG,≤ 0.25
24,KRHM,≤ 0.25

row,Variant,enrichment ratio
1,PAKY,≤ 0.25
2,WDMW,≤ 0.25
3,LQNP,0.774
4,MWTK,≤ 0.25
5,DNYH,≤ 0.25
6,LRQY,≤ 0.25
7,TMNT,11.9
8,AHSS,≤ 0.25
9,KNRI,≤ 0.25
10,RNAY,≤ 0.25
11,RHWL,≤ 0.25
12,MYHG,≤ 0.25
13,EDGC,≤ 0.25
14,RAVT,≤ 0.25
15,TNAD,≤ 0.25
16,WPCS,≤ 0.25
17,PSAA,≤ 0.25
18,WGFK,≤ 0.25
19,SGPP,≤ 0.25
20,APRY,≤ 0.25
21,TIDV,≤ 0.25
22,QCPE,≤ 0.25
23,DWEA,≤ 0.25
24,AGVP,≤ 0.25

row,Variant,enrichment ratio
1,HGNA,≤ 0.25
2,AYHR,≤ 0.25
3,NWWL,0.392
4,HLTW,≤ 0.25
5,FWVT,≤ 0.25
6,VQGI,≤ 0.25
7,IWRE,≤ 0.25
8,ASKW,≤ 0.25
9,RDAK,≤ 0.25
10,DLQW,≤ 0.25
11,KAEA,≤ 0.25
12,GLWL,≤ 0.25
13,TNGQ,6.25
14,TPER,≤ 0.25
15,TVWT,≤ 0.25
16,SPVT,≤ 0.25
17,FDPN,≤ 0.25
18,RGEW,≤ 0.25
